According to the RNAGym collection of RNA variant scans (doi:10.1093/nar/gkz1192):
The source gives no read counts; variants with many changes may rest on few reads.

B1: CPEB3 Ribozyme (parent)
chain: UAACAGGGGGCCACAGCAGAAGCGUUCACGUCGCAGCCCCUGUCAGAUUCUGGUGAAUCUGCGAAUUCUGCUGUAUAUCUC

Variants of: B1
Assay: self-cleavage, relative activity (ratio to wild type); higher = more cleavage; in vitro, sequencing
Method in brief: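 After error-prone PCR and barcoding, CPEB3 ribozyme mutant libraries were transcribed with T7 RNA polymerase at 37°C for 5 hours, then given 15 min with DNase I before an EDTA stop, and they cleaved during both steps. Reverse transcription with template switching preceded Illumina sequencing. Relative activity divides a variant's cleaved/total read fraction by the unmutated ribozyme's. At least 5 reads were required per variant, and three batches were averaged.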
A13G A35U U80A showed a self-cleavage of 0.42. In the case of A13G A45C A56G C68A U69C, the self-cleavage is reported as 0.06. A13G A45G A57U showed a self-cleavage of 0.59. A13G A45G A75U showed a self-cleavage of 0.96. A13G A45G U48C U69A U78A gave a self-cleavage of 0.07. Variant A13G A45G U48C U69A U80A has a self-cleavage of 0.43. A13G A45G U48C U69C A75G showed a self-cleavage of 0.09. For A13G A45G U51C A57G, the self-cleavage was 0.29. A13G A45G U67A gave a self-cleavage of 0.19. With A13G A45G U67G U69G the self-cleavage was 0.19. A13G A45G U69A gave a self-cleavage of 0.45. For A13G A45U A47U U69A, the self-cleavage was 0.15. For A13G A45U A56G U60C U67A, the self-cleavage was 0.06. In the case of A13G A45U U58C A64G, the self-cleavage is reported as 0.21. In the case of A13G A45U U67C U80C, the self-cleavage is reported as 0.09. Variant A13G A47C G52U has a self-cleavage of 0.19. With A13G A47G A56G the self-cleavage was 0.9. Variant A13G A47G A65G has a self-cleavage of 0.39. In the case of A13G A47G C50A U80C, the self-cleavage is reported as 0.67. With A13G A47G U60A the self-cleavage was 0.36. A13G A47G U60C G63U U78C U80C gave a self-cleavage of 0.07. A13G A47G U67A gave a self-cleavage of 0.49. Work on A13G A47G U69C A77G C79U yielded a self-cleavage of 0.41. A13G A47G U80C gave a self-cleavage of 1.07. In the case of A13G A47U U60C, the self-cleavage is reported as 0.18. A13G A56C A77G showed a self-cleavage of 0.37. With A13G A56G A64G the self-cleavage was 0.6. With A13G A56G C59U the self-cleavage was 0.34. With A13G A56G U60A the self-cleavage was 0.27. In the case of A13G A56G U60C, the self-cleavage is reported as 0.23. For A13G A56G U60C U76C, the self-cleavage was 0.17. In the case of A13G A56G U72C, the self-cleavage is reported as 0.91. For A13G A56G U80A, the self-cleavage was 0.82. A13G A56U A65G U72G gave a self-cleavage of 0.2. For A13G A56U C59U, the self-cleavage was 0.21. Work on A13G A56U U58G A64G U69C yielded a self-cleavage of 0.09. Work on A13G A56U U60A U72C U78C U80A yielded a self-cleavage of 0.19. For A13G A56U U67C A77G, the self-cleavage was 0.16. Work on A13G A56U U80C yielded a self-cleavage of 0.79. With A13G A57G A75U the self-cleavage was 0.95. With A13G A57G G61A G73A the self-cleavage was 0.19. In the case of A13G A57G G63U, the self-cleavage is reported as 1.03. Work on A13G A57G U66C U69C yielded a self-cleavage of 0.29. Work on A13G A57G U78A yielded a self-cleavage of 0.98. In the case of A13G A57U A75G, the self-cleavage is reported as 0.78. For A13G A57U U67C, the self-cleavage was 0.08. Work on A13G A64G A77G yielded a self-cleavage of 0.58. A13G A64G U66C A77C gave a self-cleavage of 0.1. For A13G A64U A77U, the self-cleavage was 0.27. Variant A13G A64U U66C has a self-cleavage of 0.15. With A13G A64U U69C U72C U80A the self-cleavage was 0.18. For A13G A64U U74C A75G, the self-cleavage was 0.12. A13G A65G U69C U78A U80A showed a self-cleavage of 0.11. A13G A65G U76C showed a self-cleavage of 0.52. Variant A13G A65G U78A has a self-cleavage of 0.44. In the case of A13G A65G U78C, the self-cleavage is reported as 0.34. Variant A13G A75G U78C has a self-cleavage of 0.63. Variant A13G A75U C81G has a self-cleavage of 1.25. Work on A13G A77U U78C yielded a self-cleavage of 1.1. With A13G C14A A21G U48C A57G U67C the self-cleavage was 0.05. Work on A13G C14A A45G U51C U58C U66C yielded a self-cleavage of 0.09. Work on A13G C14A A47G U49C A57G U69C yielded a self-cleavage of 0.06. A13G C14A U25C U49A U76A U78C showed a self-cleavage of 0.23. In the case of A13G C14U A18U U31C U66G, the self-cleavage is reported as 0.04. A13G C14U A20G U43C U76A showed a self-cleavage of 0.15. Work on A13G C14U C23A A45G A77G yielded a self-cleavage of 0.21. A13G C14U U31C U43C gave a self-cleavage of 0.19. In the case of A13G C14U U41C U67A, the self-cleavage is reported as 0.19. A13G C14U U66C U78C gave a self-cleavage of 0.31. Work on A13G C14U U72C yielded a self-cleavage of 1.12. In the case of A13G C14U U80C, the self-cleavage is reported as 1.08. A13G C17A A18U A35U C40G U72C gave a self-cleavage of 0.06. Variant A13G C17G A18G has a self-cleavage of 0.4. Work on A13G C17G A21G U26C U41C U49A G61A yielded a self-cleavage of 0.02. For A13G C17G G52U, the self-cleavage was 0.18. A13G C17G U31A A35G showed a self-cleavage of 0.08. A13G C17U A35C C38U U43C gave a self-cleavage of 0.36. A13G C17U A45C G52A U80C gave a self-cleavage of 0.22. A13G C17U C29U gave a self-cleavage of 0.18. In the case of A13G C17U U41C A47U G63U A65G, the self-cleavage is reported as 0.15. Variant A13G C17U U51C G61A has a self-cleavage of 0.11. A13G C17U U69A U78C gave a self-cleavage of 0.29. A13G C23A U25C A45G U51A U78A gave a self-cleavage of 0.28. Work on A13G C23A U76C yielded a self-cleavage of 0.27. A13G C23G C29U A47U G55C U72G showed a self-cleavage of 0.04. A13G C23G G30A C38U U69G U74C showed a self-cleavage of 0.16. Work on A13G C23G U25A A56U U69A yielded a self-cleavage of 0.1. A13G C23G U26A U51A U60A U69A U72C showed a self-cleavage of 0.14. Work on A13G C23G U26A U74C yielded a self-cleavage of 0.63. A13G C23G U26C G36A showed a self-cleavage of 0.19. For A13G C23G U26C G36A G55U, the self-cleavage was 0.05. In the case of A13G C23G U66C U69G U74C, the self-cleavage is reported as 0.23. A13G C23G U72C showed a self-cleavage of 0.05. Work on A13G C23U A35U U41G A45U yielded a self-cleavage of 0.06. Work on A13G C23U A47G U51C U78A yielded a self-cleavage of 0.16. For A13G C23U C29A G36U U43C U66C, the self-cleavage was 0.07. With A13G C23U C38U U54C U72C the self-cleavage was 0.11. A13G C23U U26A A45G U49A U74G gave a self-cleavage of 0.14. Variant A13G C23U U43A A45G U51G has a self-cleavage of 0.09. For A13G C27A A56C U72C G73U, the self-cleavage was 0.04. Variant A13G C27A A56C U78C has a self-cleavage of 0.06. A13G C27A U67A showed a self-cleavage of 0.17. A13G C27U A35U gave a self-cleavage of 0.08. In the case of A13G C29G A35G U80G, the self-cleavage is reported as 0.18. In the case of A13G C29G U41C A57U, the self-cleavage is reported as 0.31. Work on A13G C29U A35G yielded a self-cleavage of 0.43. Work on A13G C29U A45U U54C A57G yielded a self-cleavage of 0.05. With A13G C29U G30C A35G U58C the self-cleavage was 0.06. With A13G C29U G61C U78C the self-cleavage was 0.29. Variant A13G C29U U41C U43C has a self-cleavage of 0.1. A13G C32A U43A A57G U80C gave a self-cleavage of 0.11. With A13G C32A U43C U54A U66C the self-cleavage was 0.09. A13G C32G A35C A45U U60A G61U showed a self-cleavage of 0.06. With A13G C32U C38U U41C A57U U69C the self-cleavage was 0.08. A13G C34A C40U U54C showed a self-cleavage of 0.21. For A13G C34G U69C, the self-cleavage was 0.16. In the case of A13G C37A U76A U78A, the self-cleavage is reported as 0.33. In the case of A13G C37G A56U U72A U76A, the self-cleavage is reported as 0.12. With A13G C38A A56G U72G the self-cleavage was 0.27. Variant A13G C38A U41C A56G U67A has a self-cleavage of 0.06. For A13G C38A U43C, the self-cleavage was 0.18. In the case of A13G C38A U69C, the self-cleavage is reported as 0.42. For A13G C38G U74A, the self-cleavage was 0.06. In the case of A13G C38U A45G C79U, the self-cleavage is reported as 0.78. Work on A13G C38U A64G yielded a self-cleavage of 0.33. A13G C38U U58C U60G U78C showed a self-cleavage of 0.05. A13G C38U U69C gave a self-cleavage of 0.13. A13G C39A A45U A47U showed a self-cleavage of 0.29. For A13G C39A U43C U78C, the self-cleavage was 0.16. A13G C39A U49C gave a self-cleavage of 0.26. A13G C39U A47G A56G A77U U80G showed a self-cleavage of 0.28. Variant A13G C39U A47G A56G U69C has a self-cleavage of 0.2. With A13G C39U U43A A47G A56G U69A the self-cleavage was 0.06. Work on A13G C39U U67A yielded a self-cleavage of 0.17. A13G C40A U43C U51C showed a self-cleavage of 0.13. A13G C40A U49C A75G U76C showed a self-cleavage of 0.24. A13G C40A U54C U72C showed a self-cleavage of 0.12. In the case of A13G C40G U58C U67C G73A, the self-cleavage is reported as 0.22. For A13G C40U A45G, the self-cleavage was 0.23. For A13G C40U U58C, the self-cleavage was 0.43. A13G C44G A77G U78C showed a self-cleavage of 0.21. Variant A13G C50A G52C A75U has a self-cleavage of 0.74. With A13G C50A U51C U54C A64G U74A the self-cleavage was 0.25. In the case of A13G C50U U54C, the self-cleavage is reported as 0.94. A13G C68A U78C gave a self-cleavage of 0.28. In the case of A13G C68G A75G U78C, the self-cleavage is reported as 0.19. For A13G C68U U69A U76C, the self-cleavage was 0.27. For A13G C79A U80C, the self-cleavage was 1.2. With A13G G16A A21G A56G U72C the self-cleavage was 0.19. A13G G16A A35U U41A U69A gave a self-cleavage of 0.04. Variant A13G G16A C59G has a self-cleavage of 0.09. For A13G G16A U26A U66C U74C, the self-cleavage was 0.06. A13G G16A U26A U69A gave a self-cleavage of 0.05. A13G G16C A35G U58C U69C gave a self-cleavage of 0.14. Work on A13G G16C U41C A64U C79U U80A yielded a self-cleavage of 0.07. Work on A13G G16U A28U yielded a self-cleavage of 0.2. A13G G19A A21G G22C U25C C71G gave a self-cleavage of 0.19. A13G G19A G24C G53A U78C showed a self-cleavage of 0.25. A13G G19A U25C gave a self-cleavage of 0.32. With A13G G19A U74C the self-cleavage was 0.28. A13G G19C A45G showed a self-cleavage of 0.29. Work on A13G G19C A65G yielded a self-cleavage of 0.18. With A13G G19C C29U G52U U60G A77G the self-cleavage was 0.05. A13G G19C G46U U72C showed a self-cleavage of 0.05. Work on A13G G19C U66C U69A yielded a self-cleavage of 0.15. With A13G G19U A35U U48A the self-cleavage was 0.04. A13G G19U A65G showed a self-cleavage of 0.23.
